The target of the assay is CD79b on target cells (JEKO, OCY-LY3, BJAB, WSU-DLCL2) (human) (UniProt P40259). The assay is described as follows: cell-based or functional assay.
Sequence of UniProt P40259 (P40259 29-229): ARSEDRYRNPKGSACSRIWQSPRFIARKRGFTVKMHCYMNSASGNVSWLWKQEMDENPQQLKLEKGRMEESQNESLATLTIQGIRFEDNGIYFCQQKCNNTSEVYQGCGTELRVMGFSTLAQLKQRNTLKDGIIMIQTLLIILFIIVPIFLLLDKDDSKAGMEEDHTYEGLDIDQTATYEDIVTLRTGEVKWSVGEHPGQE

B1: ATB 222 (Fc fusion)
chain: EVQLVESGGGLVQPGGSLRLSCAASGYTFSSYWIEWVRQAPGKGLEWIGEILPGGGDTNYNEIFKGRATFSADTSKNTAYLQMNSLRAEDTAVYYCTRRVPIRLDYWGQGTLVTVSSGGGGSGGGGSGGGGSDIQLTQSPSSLSASVGDRVTITCKASQSVDYEGDSFLNWYQQKPGKAPKLLIYAASNLESGVPSRFSGSGSGTDFTLTISSLQPEDFATYYCQQSNEDPLTFGQGTKVEIKAS[human IgG1 Fc and a few adjoining residues not written out]RRRKRSLDTSAVTWTCLNDQKNPKTNKYETKRLLYNQNKAESNSHHAPLSDGKTGSSYPHWFTNGYDGDGKLPKGRTPIKFGKSDCDRPPKHSKDGNGKTDHYLLEFPTFPDGHDYKFDSKKPKENPGPARVIYTYPNKVFCGIIAHTKENQGELKLCSH
In turn, B1 registered a cell viability IC50 (Cell Titer Glo, 72 h), BJAB cells of 0.058 pM.

B2: ATB 466 (Fc fusion)
chain: EVQLVESGGGLVQPGGSLRLSCAASGYTFSSYWIEWVRQAPGKGLEWIGEILPGGGDTNYNEIFKGRATFSADTSKNTAYLQMNSLRAEDTAVYYCTRRVPIRLDYWGQGTLVTVSSGGGGSGGGGSGGGGSDIQLTQSPSSLSASVGDRVTITCKASQSVDYEGDSFLNWYQQKPGKAPKLLIYAASNLESGVPSRFSGSGSGTDFTLTISSLQPEDFATYYCQQSNEDPLTFGQGTKVEIKAS[human IgG1 Fc and a few adjoining residues not written out]RRRKRSLDTSADTVICEPHQDTETGKIKKFKVDVGVAEDQAKKAGLTTGKSGDPHRYMNGDKINFGIHNCDKEGAILWEYPIYWVGKKAEWMKDEKTDRQPGGPTPIRVVYANNNGNIVYCGVMTHAVVKSNNQGEKFFLKCT
B2 yielded a cell viability IC50 (Cell Titer Glo, 72 h), JEKO cells of 0.533 pM.

B3: ATB 452 (antibody)
heavy: EVQLVESGGGLVQPGGSLRLSCAASGYTFSSYWIEWVRQAPGKGLEWIGEILPGGGDTNYNEIFKGRATFSADTSKNTAYLQMNSLRAEDTAVYYCTRRVPIRLDYWGQGTLVTVSS[human IgG1 constant region not written out]GGSADTVICEPHQDTETGKIKKFKVDVGVAEDQAKKAGLTTGKSGDPHRYMNGDKINFGIHNCDKEGAILWEYPIYWVGKKAEWMKDEKTDRQPGGPTPIRVVYANNNGNIVYCGVMTHAVVKSNNQGEKFFLKCT
light: DIQLTQSPSSLSASVGDRVTITCKASQSVDYEGDSFLNWYQQKPGKAPKLLIYAASNLESGVPSRFSGSGSGTDFTLTISSLQPEDFATYYCQQSNEDPLTFGQGTKVEIKRTVAAPSVFIFPPSDEQLKSGTASVVCLLNNFYPREAKVQWKVDNALQSGNSQESVTEQDSKDSTYSLSSTLTLSKADYEKHKVYACEVTHQGLSSPVTKSFNRGEC
Turning to B3, the cell viability IC50 (Cell Titer Glo, 72 h), BJAB cells (FIG. 15) worked out at 0.0333 pM; the cell viability IC50 (Cell Titer Glo, 72 h), JEKO cells (FIG. 16) was 15.1 pM; the cell viability IC50 (Cell Titer Glo, 72 h), OCY-LY3 cells (FIG. 18) was 58.7 pM; the fold better efficacy than marketed antibody drug conjugate (Polatuzumab), viability assay on BJAB cells (FIG. 15) is 3000 fold. Moreover, the fold better efficacy than marketed antibody drug conjugate, viability assay on JEKO cells (FIG. 16) was determined as 4.5 fold.

B4: ATB 536 (antibody)
heavy: B3 heavy
light: DIQLTQSPSSLSASVGDRVTITCKASQSVDYEGDSFLNWYQQKPGKAPKLLIYAASNLESGVPSRFSGSGSGTDFTLTISSLQPEDFATYYCQQSNEDPLTFGQGTKVEIKRTVAAPSVFIFPPSDEQLKSGTASVVCLLNNFYPREAKVQWKVDNALQSGNSQESVTEQDSKDSTYSLSSTLTLSKADYEKHKVYACEVTHQGLSSPVTKSFNRGECGGGGSADTVICEPHQDTETGKIKKFKVDVGVAEDQAKKAGLTTGKSGDPHRYMNGDKINFGIHNCDKEGAILWEYPIYWVGKKAEWMKDEKTDRQPGGPTPIRVVYANNNGNIVYCGVMTHAVVKSNNQGEKFFLKCT
B4 registered a cell viability IC50 (Cell Titer Glo, 72 h), JEKO cells of 37.4 pM.

B5: ATB 507 (antibody)
heavy: EVQLVESGGGLVQPGGSLRLSCAASGYTFSSYWIEWVRQAPGKGLEWIGEILPGGGDTNYNEIFKGRATFSADTSKNTAYLQMNSLRAEDTAVYYCTRRVPIRLDYWGQGTLVTVSS[human IgG1 constant region not written out]RRRKRSLDTSADTVICEPHQDTETGKIKKFKVDVGVAEDQAKKAGLTTGKSGDPHRYMNGDKINFGIHNCDKEGAILWEYPIYWVGKKAEWMKDEKTDRQPGGPTPIRVVYANNNGNIVYCGVMTHAVVKSNNQGEKFFLKCT
light: B3 light
In the case of B5, the cell viability IC50 (Cell Titer Glo, 72 h), JEKO cells amounted to 25.8 pM.

B6: ATB 96 (Fc fusion)
chain: EVQLVESGGGLVQPGGSLRLSCAASGYTFSSYWIEWVRQAPGKGLEWIGEILPGGGDTNYNEIFKGRATFSADTSKNTAYLQMNSLRAEDTAVYYCTRRVPIRLDYWGQGTLVTVSSGGGGSGGGGSGGGGSDIQLTQSPSSLSASVGDRVTITCKASQSVDYEGDSFLNWYQQKPGKAPKLLIYAASNLESGVPSRFSGSGSGTDFTLTISSLQPEDFATYYCQQSNEDPLTFGQGTKVEIKAS[human IgG1 Fc not written out]
For the molecule B6, the cell viability IC50 (Cell Titer Glo, 72 h), WSU-DLCL2 cells came out at 9040 pM.

B7: ATB 509 (antibody)
heavy: EVQLVESGGGLVQPGGSLRLSCAASGYTFSSYWIEWVRQAPGKGLEWIGEILPGGGDTNYNEIFKGRATFSADTSKNTAYLQMNSLRAEDTAVYYCTRRVPIRLDYWGQGTLVTVSS[human IgG1 constant region not written out]
light: B4 light
For the molecule B7, the cell viability IC50 (Cell Titer Glo, 72 h), JEKO cells was found to be 28.7 pM.

B8: ATB 495 (Fc fusion)
chain: EVQLVESGGGLVQPGGSLRLSCAASGYTFSSYWIEWVRQAPGKGLEWIGEILPGGGDTNYNEIFKGRATFSADTSKNTAYLQMNSLRAEDTAVYYCTRRVPIRLDYWGQGTLVTVSSGGGGSGGGGSGGGGSDIQLTQSPSSLSASVGDRVTITCKASQSVDYEGDSFLNWYQQKPGKAPKLLIYAASNLESGVPSRFSGSGSGTDFTLTISSLQPEDFATYYCQQSNEDPLTFGQGTKVEIKAS[human IgG1 Fc and a few adjoining residues not written out]GGSADTVICEPHQDTETGKIKKFKVDVGVAEDQAKKAGLITGKSGDPHRYMNGDKINFGIHNCDKEGAILWEYPIYWVGKKAEWMKDEKTDRQPGGPTPIRVVYANNNGNIVYCGVMTHAVVKSNNQGEKFFLKCT
The molecule B8 showed a cell viability IC50 (Cell Titer Glo, 72 h), JEKO cells of 326 pM.

B9: ATB 496 (Fc fusion)
chain: EVQLVESGGGLVQPGGSLRLSCAASGYTFSSYWIEWVRQAPGKGLEWIGEILPGGGDTNYNEIFKGRATFSADTSKNTAYLQMNSLRAEDTAVYYCTRRVPIRLDYWGQGTLVTVSSGGGGSGGGGSGGGGSDIQLTQSPSSLSASVGDRVTITCKASQSVDYEGDSFLNWYQQKPGKAPKLLIYAASNLESGVPSRFSGSGSGTDFTLTISSLQPEDFATYYCQQSNEDPLTFGQGTKVEIKAS[human IgG1 Fc and a few adjoining residues not written out]GGSADTVICEPRQDTETGKIKKFKVDVGVAEDQAKKAGLITGKSGDPHRYMNGDKINFGIHNCDKEGAILWEYPIYWVGKKAEWMKDEKTDRQPGGPTPIRVVYANNNGNIVYCGVMTHAVVKSNNQGEKFFLKCT
B9 returned a cell viability IC50 (Cell Titer Glo, 72 h), JEKO cells of 532 pM.

B10: ATB 497 (Fc fusion)
chain: EVQLVESGGGLVQPGGSLRLSCAASGYTFSSYWIEWVRQAPGKGLEWIGEILPGGGDTNYNEIFKGRATFSADTSKNTAYLQMNSLRAEDTAVYYCTRRVPIRLDYWGQGTLVTVSSGGGGSGGGGSGGGGSDIQLTQSPSSLSASVGDRVTITCKASQSVDYEGDSFLNWYQQKPGKAPKLLIYAASNLESGVPSRFSGSGSGTDFTLTISSLQPEDFATYYCQQSNEDPLTFGQGTKVEIKAS[human IgG1 Fc and a few adjoining residues not written out]GGSADTVICEPHQDTETGKIKKFTVDVGVAEDQAKKAGLTTGKSGDPHRYMNGDNINFGIHNCDKEGAILWEYPIYWVGKKAEWKKDEKTDRQPGGPTPLRVVYANNNGNIVYCGVMTHAVVKSNNQGEKFFLKCT
Turning to B10, the cell viability IC50 (Cell Titer Glo, 72 h), JEKO cells came out at 138 pM.

B11: ATB 467 (Fc fusion)
chain: EVQLVESGGGLVQPGGSLRLSCAASGYTFSSYWIEWVRQAPGKGLEWIGEILPGGGDTNYNEIFKGRATFSADTSKNTAYLQMNSLRAEDTAVYYCTRRVPIRLDYWGQGTLVTVSSGGGGSGGGGSGGGGSDIQLTQSPSSLSASVGDRVTITCKASQSVDYEGDSFLNWYQQKPGKAPKLLIYAASNLESGVPSRFSGSGSGTDFTLTISSLQPEDFATYYCQQSNEDPLTFGQGTKVEIKAS[human IgG1 Fc and a few adjoining residues not written out]RHRQPRGWEQLADTVICEPHQDTETGKIKKFKVDVGVAEDQAKKAGLTTGKSGDPHRYMNGDKINFGIHNCDKEGAILWEYPIYWVGKKAEWMKDEKTDRQPGGPTPIRVVYANNNGNIVYCGVMTHAVVKSNNQGEKFFLKCT
Molecule B11 gave a cell viability IC50 (Cell Titer Glo, 72 h), JEKO cells of 86 pM.

B12: ATB 323 (antibody)
heavy: EVQLVESGGGLVQPGGSLRLSCAASGYTFSSYWIEWVRQAPGKGLEWIGEILPGGGDTNYNEIFKGRATFSADTSKNTAYLQMNSLRAEDTAVYYCTRRVPIRLDYWGQGTLVTVSSGGGGSGGGGSGGGGSDIQLTQSPSSLSASVGDRVTITCKASQSVDYEGDSFLNWYQQKPGKAPKLLIYAASNLESGVPSRFSGSGSGTDFTLTISSLQPEDFATYYCQQSNEDPLTFGQGTKVEIKAS[human IgG1 Fc and a few adjoining residues not written out]GGSGGGGSRRKRAVTWTCLNDQKNPKTNKYETKRLLYNQNKAESNSHHAPLSDGKTGSSYPHWFTNGYDGDGKLPKGRTPIKFGKSDCDRPPKHSKDGNGKTDHYLLEFPTFPDGHDYKFDSKKPKENPGPARVIYTYPNKVFCGIIAHTKENQGELKLCSH
light: QIVLSQSPAILSASPGEKVTMTCRASSSVSYIHWFQQKPGSSPKPWIYATSNLASGVPVRFSGSGSGTSYSLTISRVEAEDAATYYCQQWTSNPPTFGGGTKLEIKRTVAAPSVFIFPPSDEQLKSGTASVVCLLNNFYPREAKVQWKVDNALQSGNSQESVTEQDSKDSTYSLSSTLTLSKADYEKHKVYACEVTHQGLSSPVTKSFNRGEC
With B12, the cell viability IC50 (Cell Titer Glo, 72 h), JEKO cells came to 160 pM.

B13: ATB 304 (Fc fusion)
chain: EVQLVESGGGLVQPGGSLRLSCAASGYTFSSYWIEWVRQAPGKGLEWIGEILPGGGDTNYNEIFKGRATFSADTSKNTAYLQMNSLRAEDTAVYYCTRRVPIRLDYWGQGTLVTVSSGGGGSGGGGSGGGGSDIQLTQSPSSLSASVGDRVTITCKASQSVDYEGDSFLNWYQQKPGKAPKLLIYAASNLESGVPSRFSGSGSGTDFTLTISSLQPEDFATYYCQQSNEDPLTFGQGTKVEIKAS[human IgG1 Fc and a few adjoining residues not written out]GGSAETVQYYNSYSDASIASCAFVDSGKDKIDKTKLVTYTSRLAASPAYQKVVGVGLKTAAGSIVPYVRLDMDNTGKGIHFNATKLSDSSAKLAAVLKTTVSMTEAQRTQLYMEYIKGIENRSAQFIWDWWRTGKAPA
B13 gave a cell viability IC50 (Cell Titer Glo, 72 h), JEKO cells of 281 pM.

The values are drawn from patent US20230310557A1.
